Some of the results follow.
The sequences below were run against T1, OsWOX13 (Oryza sativa, UniProt Q5QMM3 1-267) (assay: protein-binding microarray (RPBM); PBS, 2% BSA, 51.3 ng/ul salmon testes DNA, 50 uM zinc acetate, 200 nM TF, 25 C, 1 h; high values mean tight binding). Conditions: protein: recombinant; tags: N-terminal polyhistidine and DsRed monomer fusion (pET32a); label: CyDye5-dUTP incorporated in the synthesized complementary strand; 3' TTTTT single-stranded linker to array surface; dsDNA, one strand shown.
T1 sequence: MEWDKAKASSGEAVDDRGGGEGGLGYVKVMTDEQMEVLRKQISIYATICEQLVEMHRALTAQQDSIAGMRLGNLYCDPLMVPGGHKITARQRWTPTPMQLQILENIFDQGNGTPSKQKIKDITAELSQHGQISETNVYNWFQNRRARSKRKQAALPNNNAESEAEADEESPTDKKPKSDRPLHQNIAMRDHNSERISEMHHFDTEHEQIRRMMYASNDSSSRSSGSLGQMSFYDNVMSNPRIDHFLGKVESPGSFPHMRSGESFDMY
Procedure, shortened: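 Transcription factors were made in E. coli BL21-CodonPlus as N-terminal fusions to a polyhistidine tag and DsRed, then purified on Ni–NTA. After primer extension with Cy5-dUTP and blocking with 2% BSA, a custom Agilent array was exposed for 1 h at 25 °C to 200 nM protein in PBS, 2% BSA, salmon testes DNA and 50 µM zinc acetate. Washed arrays were scanned on an Axon 4000B, and the binding signal is per-feature fluorescence intensity in arbitrary units.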

Row | Sequence | binding signal
1 | GAGGGGTAAATAGTTAATTATTCCTCTATTTTGGGTGGAGCGGAGTCACCTAGTGCAG | 6010 fluorescence intensity (a.u.)
2 | CGCTAATTAGCCAAGCCATTGTACGTGCCGCTAATAAGCTCGGAGTCACCTAGTGCAG | 42700 fluorescence intensity (a.u.)
3 | GTCTCAATTAATGGATTGATCACTTCTAATACTTTGTAAACGGAGTCACCTAGTGCAG | 5000 fluorescence intensity (a.u.)
4 | TTTGATTGAGAACTACAATGCTTTGGAGGATGAGAATGGACGGAGTCACCTAGTGCAG | 25700 fluorescence intensity (a.u.)
5 | TAAAATTATTGTGGAATGTCAATGAACCAGTAAATTCTAGCGGAGTCACCTAGTGCAG | 3380 fluorescence intensity (a.u.)
6 | AAAGACAGACTCCTAATTGCAGCTCATGATTTTCTAAAAGCGGAGTCACCTAGTGCAG | 32200 fluorescence intensity (a.u.)
7 | CGAATTTAAACAGAGATATGTATCCCATATAATCCGTTGTCGGAGTCACCTAGTGCAG | 6250 fluorescence intensity (a.u.)
8 | AAATTGATGGACGCTTGAGTCGGATAGGATCCATCGATTTCGGAGTCACCTAGTGCAG | 15100 fluorescence intensity (a.u.)
9 | CAGTCCAATTAATTTTCTCTGTGATCCGGTGCCCTCTGACCGGAGTCACCTAGTGCAG | 18700 fluorescence intensity (a.u.)
10 | TAAGTTAATGATTAGAGCTTTTATCGTCTCAACTGTCATACGGAGTCACCTAGTGCAG | 24700 fluorescence intensity (a.u.)
11 | GGTACTGATACTAATTACTAAATGCCTAAGACTTTTGATGCGGAGTCACCTAGTGCAG | 10800 fluorescence intensity (a.u.)
12 | GTGTTAGCCCCTGATTAGTTGACAGGAGTAGATTAATAGTCGGAGTCACCTAGTGCAG | 10400 fluorescence intensity (a.u.)
13 | CAAACAGTCAATTAGGCCTAAACAAGTTGCTACGAGCTAGCGGAGTCACCTAGTGCAG | 33200 fluorescence intensity (a.u.)
14 | AAACTATTACTGATAATCTATTTGTTGTTAAAGGCTTTTGCGGAGTCACCTAGTGCAG | 8230 fluorescence intensity (a.u.)
15 | TGACATTTCCATCAATTTAGTTACACTGACAGGTGGGCCCCGGAGTCACCTAGTGCAG | 14200 fluorescence intensity (a.u.)
16 | CCCTGTCAATCAATCATCCAAAGTTCAAAACAATTCAAATCGGAGTCACCTAGTGCAG | 38200 fluorescence intensity (a.u.)
17 | ATTACGCCATGATTTGACAATGTGATGCTACAGTAAACATCGGAGTCACCTAGTGCAG | 7010 fluorescence intensity (a.u.)
18 | GTACAATTGCATCTAAATGATCATTTAGGTGTACACCTAACGGAGTCACCTAGTGCAG | 5980 fluorescence intensity (a.u.)
19 | AATATTAAATAATCTAACTTGATTTGTTGTAATATCTTATCGGAGTCACCTAGTGCAG | 5590 fluorescence intensity (a.u.)
20 | AGAGAGATTGAGAGGAAGAGGAGGGAAAGAGACAGGTGAGCGGAGTCACCTAGTGCAG | 4180 fluorescence intensity (a.u.)
21 | GAGATGATAATGATGATGGAATGTGCACGTTGAATAAAACCGGAGTCACCTAGTGCAG | 12000 fluorescence intensity (a.u.)

Row | Sequence | binding signal
22 | CATAACTTACAATTGGGCTACACCTATTACTGACAGCAAACGGAGTCACCTAGTGCAG | 3340 fluorescence intensity (a.u.)
23 | ATGCTACTACTAATTACTAAACATCACAGCCTCAGAGAATCGGAGTCACCTAGTGCAG | 4240 fluorescence intensity (a.u.)
24 | TTACATGATTAAATGGTCTTCTTGAATTTTGCGGTGACATCGGAGTCACCTAGTGCAG | 8150 fluorescence intensity (a.u.)
25 | GCCCAAGTCATCAATCTTCAACTAATCGATTTGGACAGTTCGGAGTCACCTAGTGCAG | 3350 fluorescence intensity (a.u.)
26 | CTGGTAATAGAATTAATATTCACATATAGGAGTATCTCCCCGGAGTCACCTAGTGCAG | 7630 fluorescence intensity (a.u.)
27 | CCGATAAATTTAATCCGTTTCTTAACCGATTCCGCACCGACGGAGTCACCTAGTGCAG | 13700 fluorescence intensity (a.u.)
28 | CCACTGCCCAATCATTTTCACTCGCAGATAATAATCTCAACGGAGTCACCTAGTGCAG | 3740 fluorescence intensity (a.u.)
29 | AATAAACTTCCTCCTTGATTGGGCTGGGTCGCGTACCCGACGGAGTCACCTAGTGCAG | 18700 fluorescence intensity (a.u.)
30 | AAATGAGCTAATTATATATGTTGATATTTGTTCTAGAAGTCGGAGTCACCTAGTGCAG | 3420 fluorescence intensity (a.u.)
31 | GTTAATTTTGAAGTGAATAAACTTTTGCGTATGTATGTAACGGAGTCACCTAGTGCAG | 21800 fluorescence intensity (a.u.)
32 | AATTTAACCAAATCAATTTATTGTATCGTATAAATGTGATCGGAGTCACCTAGTGCAG | 15100 fluorescence intensity (a.u.)
33 | CTTCAATCTGTTCATTACAATCTCTCTCTCTCTCTCTCTCCGGAGTCACCTAGTGCAG | 3930 fluorescence intensity (a.u.)
34 | TTGATATTTAATAAATTATATATAGATAATATACATATGACGGAGTCACCTAGTGCAG | 6240 fluorescence intensity (a.u.)
35 | AATAATTTGGTTCCTGGACGAATTGGCCCAGGTTTCGAGTCGGAGTCACCTAGTGCAG | 11200 fluorescence intensity (a.u.)
36 | AGGGGTGGGATTGAGATTGGGAAATAAATAAAATGTTAGGCGGAGTCACCTAGTGCAG | 12100 fluorescence intensity (a.u.)
37 | CCTATTGAATGCTAATTAAAGGGTAAGGGTGCTCCAGATTCGGAGTCACCTAGTGCAG | 11600 fluorescence intensity (a.u.)
38 | GCTTTGGATTGAAGTAACTAAGACACATCTAGCAGGCAAACGGAGTCACCTAGTGCAG | 4890 fluorescence intensity (a.u.)
39 | CGTTTGTTAACTGTTGTCCGATCCGACCCAATCCTATCAGCGGAGTCACCTAGTGCAG | 3380 fluorescence intensity (a.u.)
40 | ATTAATGTCCAGTGACTGACGTACATTGATACGTTTTCATCGGAGTCACCTAGTGCAG | 15900 fluorescence intensity (a.u.)
41 | ATAATACGTTAATTTCAAATCACACTGGCTTATTTAAATCCGGAGTCACCTAGTGCAG | 5670 fluorescence intensity (a.u.)
42 | CCTTAATTGAGGCAACGATTTGATGCAATAATCTTTATGCCGGAGTCACCTAGTGCAG | 41100 fluorescence intensity (a.u.)

From PMC7819943, “Rice protein-binding microarrays: a tool to detect cis-acting elements near promoter regions in rice”
